The target of test [1] is human CDH3 on the surface of GP2d cells (human, UniProt P22223 108-829). The test is described as follows: cell-based or functional assay.
For test [2], the target named is T1, recombinant human CDH3 [EC2-EC3] (human, UniProt P22223 216-440, limits assumed).
T1 construct: no separate entry is named for EC3; also called HuCDH3_EC2-EC3; EC2-EC3 peptide
The test is described as follows: SPR (ProteOn XPR36), bispecific captured on protein A/G, CDH3 EC2-EC3 as analyte.

Test [3] concerns the target T2, recombinant human CDH3, full-length (human, UniProt P22223 partial chain, limits assumed).
T2 construct: also called HuCDH3 full-length; human full-length CDH3
The test is described as follows: SPR (ProteOn XPR36), bispecific captured on protein A/G, CDH3 as analyte, 1:1 Langmuir fit.

The target of test [4] is T3, recombinant human CDH3 [EC1-EC2] (human, UniProt P22223 partial chain, limits assumed).
T3 construct: also called HuCDH3 EC1-EC2
The description is as above.

B1: bispecific binding molecule CDH3/TRAILR2v1 (bispecific antibody, human IgG1, kappa)
heavy: EVQLVQSGAEVKKPGESLKISCKGSGYSFTSYWIGWVRQMPGKGLEWMGIIYPGDSDTRYSPSFQGQVTISADKSISTAYLQWSSLKASDTAMYYCARHSFFDYWGQGTLVTVSSASTKGPSVFPLAPSSKSTSGGTAALGCLVKDYFPEPVTVSWNSGALTSGVHTFPAVLQSSGLYSLSSVVTVPSSSLGTQTYICNVNHKPSNTKVDKRV[letters of human IgG1 Fc with changes not shown]GGSGGSSSELTQDPAVSVALGQTVRITCQGDSLRSYYASWYQQKPGQAPVLVIYGKNNRPSGIPDRFSGSSSGNTASLTITGAQAEDEADYYCNSRDSSGNHVVFGGGTKLTVLGGGGSGGGGSGGGGSGGGGSEVQLVQSGGGVERPGGSLRLSCAASGFTFDDYGMSWVRQAPGKGLEWVSGINWNGGSTGYADSVKGRVTISRDNAKNSLYLQMNSLRAEDTAVYYCAKILGAGRGWYFDLWGKGTTVTVSS
light: [letters of about 100 residues not shown][letters of about 120 residues not shown]
notes: also called CDH3/TR2v1
For orientation: Kd means the concentration at which binding is half-saturated. Turning to B1, in test [1], the “cell viability of GP2d cells after 24 h (CellTiter-Glo), EC50” value turned out to be 0.337 nM and the “cell viability of GP2d cells after 24 h (CellTiter-Glo), potency against Lexatumumab alone” value is 17 fold. Besides, the binding result in test [2] is “no binding (tested: 500 nM analyte)”. The Kd in test [3] is 8.52 nM. For the same molecule, the Kd in test [4] was determined as 6.7 nM.

These data come from patent US20240052065A1 (Boehringer Ingelheim, published 2024).
